These results are taken from ChEMBL document CHEMBL4888484, “Replenishing the malaria drug discovery pipeline: Screening and hit evaluation of the MMV Hit Generation Library 1 (HGL1) against asexual blood stage Plasmodium falciparum ,using a nano luciferase reporter read-out” (2022).

The term % Inhibition denotes the change of the read-out against control, counted positive when it falls.

The whole screen tested about 150,000 compounds, of which about 540 (0.36%) showed an effect of 50% or more. The list shows a part of the results.

For the assay, the system named is Plasmodium falciparum. The experiment in a line: Primary screen in NF54 nanoGlo assay, in single point, at 2uM, 72h; a lower Z score goes with more inhibition. Type of assay: functional, Erythrocyte. The note with it: timepoint 72 hour.
Regarding `COc1ccc(NC(=O)c2cnc(N3CCN(C)CC3)nc2C)cc1OC`, the “% Inhibition” value is -5% and the Z score turned out to be 0.7.

Take `COCc1nc(CN2CCO[C@H](c3nc(C(C)C)n[nH]3)C2)cs1`: the “% Inhibition” value worked out at 29% and the Z score is given as -3.85.

As to `CCCc1ncncc1-c1nc(COc2cccc(F)c2)nn1CC(=O)O`, the “% Inhibition” value is listed as -14% and the Z score was 2.51.

As for `Cc1ccc(CN(C)C(=O)Nc2ccc3[nH]c(=O)[nH]c3c2)nc1`, the “% Inhibition” value is given as -6% and the Z score came to 0.53.

With `Cn1c(CNc2ccc(C(=O)N[C@@]3(C)CCS(=O)(=O)C3)cc2)nc2ccccc21`, the “% Inhibition” value is reported as -7% and the Z score is on record as 1.08.

Regarding `CCC(=O)N(CC(=O)N1CCc2sccc2[C@@H]1COc1cccc(F)c1)CC(C)C`, the “% Inhibition” value is recorded as -9% and the Z score stood at 0.79.

Consider `CN(C)c1ncc2c(n1)CC[C@H](NC(=O)COc1ccccc1F)C2`, for which the “% Inhibition” value was 9% and the Z score is on record as -1.17.

Take `CC(C)[C@@H](C(N)=O)n1cc(-c2ccc(-c3ccccc3C#N)o2)nn1`: the “% Inhibition” value is listed as -8% and the Z score is 1.56.

Regarding `CCNC(=O)C1CC(c2cccc(C)c2)CN(Cc2ccccc2F)C1` (centres undefined), the “% Inhibition” value was -2% and the Z score was 0.27.

With `CCC(=O)N(Cc1ccc(F)cc1)c1ccc(CC(=O)NC(C)C)cc1`, the “% Inhibition” value is given as 1% and the Z score is -0.11.

Consider `CCN(Cc1csc(C)n1)S(C)(=O)=O`, for which the “% Inhibition” value is recorded as 4% and the Z score is -0.59.

Consider `Cc1ccc2c(c1)C[C@@H](C(=O)N1CCN(c3ccnc(C)c3)CC1)N2`, for which the “% Inhibition” value is -11% and the Z score is reported as 1.2.

As for `COc1ccc(C2c3[nH]c4ccccc4c3C[C@H]3C(=O)N(Cc4ccccc4)CC(=O)N23)cc1` (some centres undefined), the “% Inhibition” value is recorded as 2% and the Z score was -0.25.

For the compound `Cc1nc(-c2ccc(C)c(S(=O)(=O)N3CCC[C@H](C(=O)Nc4ccc(C)c(C)c4)C3)c2)no1`, the “% Inhibition” value is -9% and the Z score is 1.23.

As to `O=C(NCC1CCCCC1O)C1COCCN1` (centres undefined), the “% Inhibition” value is -8% and the Z score is reported as 1.09.

For the compound `CC[C@@H](C#N)NC(=O)c1ccc(O)cc1F`, the “% Inhibition” value is on record as -7% and the Z score is 1.39.

On to `COCCn1cc(CC(=O)N2CCCC2)c2cccnc21`, for which the “% Inhibition” value is given as -14% and the Z score was 1.68.

For `Cc1nc(O)c(Cl)c(-c2ccc(C(=O)NCCCN3CCCC3)cc2)n1`, the “% Inhibition” value was -5% and the Z score is 0.98.

Consider `Cc1nc(C)c(C(=O)NC[C@H]2CCCN(c3nccs3)C2)s1`, for which the “% Inhibition” value was 27% and the Z score was -3.39.

As for `COCC[C@@H](COC)NC(=O)c1cnc2c(c1)NC(=O)CO2`, the “% Inhibition” value is on record as -18% and the Z score was 2.74.

With `CCn1cc(S(=O)(=O)N2CCc3[nH]c(-c4ccccc4)nc3C2)c(C)n1`, the “% Inhibition” value is 1% and the Z score is -0.05.

Turning to `Cn1nc(-c2cncnc2)nc1N1CCCCC1`, the “% Inhibition” value is listed as -11% and the Z score is 1.44.

Take `CC(=O)c1ccc(NC(=O)c2ccc(-n3nc(OCc4cccc(F)c4)ccc3=O)cc2)cc1`: the “% Inhibition” value is given as -21% and the Z score was 3.67.

With `CNS(=O)(=O)CCNC(=O)c1csc(C2CC2)n1`, the “% Inhibition” value is -8% and the Z score came out at 0.97.

As to `CO[C@@H](C)CS(=O)(=O)N(C)c1nc2cc(Cl)ccc2s1`, the “% Inhibition” value is -3% and the Z score was found to be 0.52.

For the compound `O=C(CC[C@H]1CCCN(C(=O)C2CCCCC2)C1)N1CCN(c2ccccn2)CC1`, the “% Inhibition” value is recorded as -15% and the Z score is 1.55.

As to `CN1C[C@@H]2CN(Cc3ccnn3-c3ccc(F)cc3)C[C@@H]2C1`, the “% Inhibition” value is given as -6% and the Z score amounted to 0.86.

For `C[C@H](NC(=O)c1[nH]nc2c1CCCC2)c1ncon1`, the “% Inhibition” value came out at 1% and the Z score is -0.12.

For the compound `OCC#Cc1csc(CN2CCC(c3nnc[nH]3)CC2)c1`, the “% Inhibition” value was -11% and the Z score is recorded as 1.34.

With `CCOc1ccc(Br)cc1NCC(=O)N(C)CCC#N`, the “% Inhibition” value is on record as -19% and the Z score was 1.68.

As for `CC1CCC(O)C(C2CCCN2C(=O)NCc2cccn2C)C1` (centres undefined), the “% Inhibition” value is listed as -3% and the Z score stood at 0.54.

On to `CC1CC1c1ccc(CNCC2(CO)CCOCC2)o1` (centres undefined), for which the “% Inhibition” value is -7% and the Z score was 1.28.

Consider `COc1ccc(CC(=O)NCCc2cccc3cccnc23)cc1`, for which the “% Inhibition” value is listed as -14% and the Z score was found to be 1.59.

On to `Cc1csc(C2CN(C(=O)C3CCc4nncn4C3)CCO2)n1` (centres undefined), for which the “% Inhibition” value is -7% and the Z score is reported as 0.86.

For `N#CC1(C(=O)N2CC(c3cccc(C(F)(F)F)c3)C2)CCOCC1`, the “% Inhibition” value stood at 1% and the Z score is -0.13.

Consider `CCOC(=O)C[C@H](N)c1cccc(C)c1C`, for which the “% Inhibition” value was 10% and the Z score was -1.51.

On to `Cc1cc(Cc2ccc(S(=O)(=O)NC3CCCC(C)C3C)cc2)c(=O)[nH]n1` (centres undefined), for which the “% Inhibition” value is on record as -6% and the Z score stood at 0.64.

Consider `Cc1cc(N2CCC(c3ccn[nH]3)CC2)c(C#N)c(C)n1`, for which the “% Inhibition” value was determined as 30% and the Z score is -3.42.

Consider `O=C(CCc1c[nH]c2ccccc12)Nc1nc([C@@H]2CCCO2)n[nH]1`, for which the “% Inhibition” value is -8% and the Z score stood at 1.1.

On to `CC[C@H](C)N(CC(=O)OC)S(=O)(=O)C1CC1`, for which the “% Inhibition” value was -6% and the Z score is given as 0.94.

Consider `O=c1oc(CN2CCOC[C@H]2C2CCC2)c(-c2ccccc2)o1`, for which the “% Inhibition” value is reported as 2% and the Z score was -0.28.

Turning to `C=CCNC(=O)c1csc(-c2ccc(OCc3ccccc3Cl)cc2Cl)n1`, the “% Inhibition” value is -2% and the Z score is 0.22.
